Assay results as given in ChEMBL document CHEMBL4888484, “Replenishing the malaria drug discovery pipeline: Screening and hit evaluation of the MMV Hit Generation Library 1 (HGL1) against asexual blood stage Plasmodium falciparum ,using a nano luciferase reporter read-out” (2022).
Among all 150,000 compounds or so, about 540 (0.36%) showed an effect of 50% or more. The list shows a part of the results.

The molecules below were run on Plasmodium falciparum (assay: Primary screen in NF54 nanoGlo assay, in single point, at 2uM, 72h; a lower Z score goes with more inhibition). Details: timepoint 72 hour.
Type: functional, Erythrocyte

Structure (SMILES)	% Inhibition	Z score
c1nc(CN2C[C@@H]3CC[C@H]2C3)n(-c2ccc3c(c2)OCO3)n1	-7%	1.38
CC(C)CC(=O)N(Cc1ccccc1OS(=O)(=O)C(C)C)C(C)C	-2%	0.2
COc1ccc(-c2nc(OC)nn2-c2cccc(NC(=O)c3ccc(C(F)(F)F)cc3)c2)cc1	-7%	1.05
COc1ccc(OC)c(C(O)CNC2CCCc3c2cnn3C)c1 (centres undefined)	-8%	0.86
COc1ccc(OC)c2c1cc(C(=O)Nc1ccc(Oc3cccc4[nH]ccc34)nc1)n2C	-2%	0.19
CC1(C)C[C@@](C)(c2ccccc2)c2ccccc2N1C(=O)Cc1ccccc1	-3%	0.37
CN(C)CCOc1cccc2c1c(NC(=O)c1ncn[nH]1)nn2-c1cccc(F)c1	12%	-1.9
COc1cccc(CN2CCC(F)(C(=O)NC3CC3)CC2)c1	-6%	0.83
Cc1ccc(CNc2c[nH]nc2C(F)(F)F)nc1	3%	-0.54
Cc1nc(C[C@H]2CCCN(S(=O)(=O)c3cccnc3C#N)C2)no1	-1%	0.21
CN(Cc1ccco1)C(=O)NC[C@H]1CCCO1	-7%	0.6
Nc1nc(NCc2cn3ccccc3n2)cc(C2CC(O)C2)n1 (centres undefined)	1%	-0.13
C[C@]1(C#N)CCCN(CCCCc2ccccc2)C1	-10%	1.27
COc1ccc(NC(=O)C[C@@H](C)CC(=O)NCc2ccc(F)cc2)c(OC)c1	2%	-0.34
CN1CCC(O)(CCNC(=O)[C@H](O)c2ccc3ccccc3c2)CC1	3%	-0.47
Cn1nccc1[C@@H]1CCCCN1C(=O)c1cccc(F)c1F	-3%	0.56
COC(=O)[C@@H]1C[C@@H](O)CN1Cc1ccncc1Cl	-4%	0.5
Cc1nnc(-c2ccccc2-c2ccc(S(C)(=O)=O)cc2)o1	-13%	1.78
FC(F)(F)c1ccc2sc(N3CCOC[C@H]3c3nc(-c4cccs4)no3)nc2c1	-31%	3.68
O=C1NCCN1C(=O)N1CC[C@H](Oc2cccc3cccnc23)C1	-10%	2
O[C@H]1[C@H](NCc2ccccc2Cl)[C@H]2CO[C@H](O2)[C@@H]1n1cc(Cl)cn1	33%	-3.78

Structure (SMILES)	% Inhibition	Z score
CN(C)c1nc(N)nc(Cn2ccc(-c3cccs3)n2)n1	-2%	0.3
CN1CCO[C@H](C(=O)Nc2cc(C3CCCC3)nn2C)C1	0%	-0.03
COc1ccc(C(=O)NC2CCC(O)(c3cccc(F)c3)CC2)nc1 (centres undefined)	-11%	1.33
Cc1c(Cl)cccc1NC(=O)C1CN(S(C)(=O)=O)C1	-14%	2.13
O=C(Nc1ccc(OC2CCCC2)c(Cl)c1)C(=O)N1CCC(O)CC1	1%	-0.06
O=C(c1ccccc1)[C@@H]1[C@@H]2C(=O)N(c3cccc(F)c3)C(=O)[C@@H]2C2CCCN21 (some centres undefined)	7%	-0.86
CCCCNC(=O)CN(C)[C@@H](C(=O)O)c1ccc(F)c(C)c1	12%	-1.62
Cc1[nH]nc(C(=O)N2CCC(C(=O)c3c(F)cc(F)cc3F)CC2)c1C	-3%	0.63
O=S(=O)(NCCCn1ccc2cccnc21)C1CC1	-8%	1.19
O=C(CCc1cn[nH]c1)N1CCC[C@H](OCc2ccccc2)C1	-1%	0.13
CN=C(NCc1cnc(C)s1)NC1CCC(C)CC1 (centres undefined)	-1%	0.13
CC(=O)N1CC[C@H](c2nc(CCOc3ccc(F)cc3)no2)C1	-11%	1.49
CCc1noc(CC)c1CN[C@@H](C)C1CC1	-10%	1.48
Cc1cc(N2CC(OCc3ccccc3)C2)nc(Nc2cccc(O)c2)n1	91%	-12.9
O=C(O)c1cccc(N2CCO[C@H](c3ccc(Cl)cc3)C2)n1	-1%	0.23
CC1CCN(c2nnc(-c3nc(C4CC4)no3)c3ccccc23)CC1	-16%	2.53
COCc1nc(C)nc(N2CCN(C(=O)N(C)C)CC2)c1Cc1cccc(OC)c1	-10%	1.81
O=C(CC[C@@H]1N=C(O)N(c2ccccc2)C1=O)NCCc1c[nH]c2ccccc12	-4%	0.52
COCC1(NC(=O)c2cnc(C)c(C)c2)CCCC1	-19%	1.81
C[C@@H](CCNC(=O)CC1CCN(S(=O)(=O)c2ccccc2)CC1)N1CCCC1	-5%	0.93
O=C(NCCNCc1ccc(Cl)cc1)c1ccncc1	0%	0.03
